# From the supplement of paper PMC3334620
# The full ranking holds about 33,000 sequences; the median of “E-score (-0.5 to 0.5)” is about -0.032, and the highest 2% start at about 0.36. This is one part of the list.
# Target: T1, Sko1 (UniProt Q02100)
# T1 sequence: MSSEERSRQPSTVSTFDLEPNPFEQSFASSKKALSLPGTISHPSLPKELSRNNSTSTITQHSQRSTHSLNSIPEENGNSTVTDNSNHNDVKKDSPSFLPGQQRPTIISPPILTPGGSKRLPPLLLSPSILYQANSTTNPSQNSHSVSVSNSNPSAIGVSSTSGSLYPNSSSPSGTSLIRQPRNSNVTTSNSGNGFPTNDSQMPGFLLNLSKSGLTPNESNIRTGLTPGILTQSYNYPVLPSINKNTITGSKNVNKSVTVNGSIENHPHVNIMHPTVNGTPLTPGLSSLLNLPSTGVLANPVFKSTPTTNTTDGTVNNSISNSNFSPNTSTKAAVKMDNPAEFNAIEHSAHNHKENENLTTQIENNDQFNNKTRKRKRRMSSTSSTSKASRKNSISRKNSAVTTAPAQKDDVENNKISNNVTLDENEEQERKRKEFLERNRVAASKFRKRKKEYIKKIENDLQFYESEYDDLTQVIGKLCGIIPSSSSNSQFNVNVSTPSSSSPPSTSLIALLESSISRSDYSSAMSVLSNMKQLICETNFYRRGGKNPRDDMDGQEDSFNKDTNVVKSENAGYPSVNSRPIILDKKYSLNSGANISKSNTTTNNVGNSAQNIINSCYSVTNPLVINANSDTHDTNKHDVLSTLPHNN
# Test: PBM E-score (8-mer binding enrichment) (E-score (-0.5 to 0.5)); higher = stronger / more preferred TF binding; most listed sequences are background and not binding sites
# Conditions: protein concentration: 200 nM; construct: GST-full length
# Method: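 Universal 'all 10-mer' protein binding microarrays (Agilent AMADID 015681) probed with GST-tagged S. cerevisiae TFs (full-length or DBD) made by in vitro transcription/translation (PURExpress), about 100-200 nM. Bound TF was detected with fluorescent anti-GST. Each ungapped 8-mer (which stands for itself and its reverse complement) is scored by the PBM enrichment score (E-score), a modified Wilcoxon-Mann-Whitney statistic from -0.5 to +0.5, computed with the Universal PBM Analysis Suite. Scale: above 0.35 generally sequence-specific binding.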
row,Sequence,PBM E-score
1,CGGGAAAC,-0.122
2,ACCATGGT,-0.16
3,CGGTCGTC,-0.109
4,CCCCTTTA,-0.112
5,ACTCTGAG,-0.273
6,GAGAACCA,-0.127
7,CCCCCACC,-0.46
8,ATACTCTC,-0.00604
9,CACGGGAA,-0.167
10,CCCAGACG,-0.0835
11,ATCTCTTG,-0.21
12,CTCCCATA,-0.269
13,GCTACGCC,-0.167
14,GAGGGAAA,-0.118
15,AGGGCACT,-0.164
16,CCGTAACC,-0.0904
17,ATTGCAGA,0.0455
18,CACCCTGG,-0.259
19,ACAGCCAC,-0.0572
20,CCTCATGC,-0.142
21,ATCGTCCG,0.0463
22,AAATTCAT,0.205

row,Sequence,PBM E-score
1,ACTTCATG,-0.0433
2,CACCCGTA,-0.158
3,CCGCGAAC,-0.223
4,AACAGTTA,-0.118
5,AGAGGAGC,-0.186
6,ACGCGCCG,-0.0415
7,AATCCATG,0.0618
8,GGACCACA,-0.223
9,CGTTTTAG,0.0401
10,ACGAAGTA,0.135
11,AAAGTGTT,0.0977
12,GCTCAGGA,-0.0979
13,GGACTGTA,-0.0526
14,CGGCAAAC,-0.0152
15,ACATCGCT,-0.0491
16,ACTCGGGG,-0.227
17,AGGTTCCA,-0.0877
18,AGGCAGAT,-0.193
19,AATGCGGT,-0.293
20,CCTCCAGA,-0.144
21,ATCATTGG,0.217
22,CATCCCTC,-0.245

row,Sequence,PBM E-score
1,TAATTAAA,0.2
2,GGAGTCCA,-0.134
3,TAAATGCA,0.131
4,AGTCAGAG,-0.142
5,TAATCGCA,0.116
6,AAGAGAAG,0.0141
7,AGCGTTGC,-0.0415
8,CAACGGCG,-0.201
9,AGTGTTGC,0.206
10,ACTCCGCC,-0.311
11,ACTCACCC,-0.239
12,TAGAACGA,0.0498
13,ACGACAGG,0.11
14,AGGTTCGC,-0.202
15,AATATGTA,0.245
16,TGAACGAA,0.00411
17,CAAGTGAA,0.0584
18,ATACACCC,-0.118
19,AAGCTTAC,0.149
20,TCGGTGAA,-0.00999
21,TAACATGA,0.127
22,CGCCCTGC,-0.236

row,Sequence,PBM E-score
1,GAGGGAGA,-0.319
2,AAAACCTC,0.00859
3,CAGTGCTC,-0.122
4,ATTAAGCA,0.0526
5,ACTGTGCA,0.0441
6,CGAGGTTA,-0.0761
7,CCTTTTTA,0.0841
8,TGAGGCCA,-0.029
9,CGTAAATC,0.313
10,AGCCTACG,0.299
11,CATTGGAC,-0.0939
12,AAGCGTAC,0.0273
13,AATCTATA,0.311
14,ATAGGATG,-0.0288
15,CGGGGTGA,-0.178
16,AGCGAGGC,-0.129
17,CACGTACA,0.389
18,AGTCCGCC,-0.177
19,ATAGTAAG,0.042
20,GACTTCGA,0.0321
21,GCGAGTTA,0.139
22,CAGCTTCG,-0.0585

row,Sequence,PBM E-score
1,GATTTAGA,0.106
2,CGCAACCG,0.0625
3,AAATGAAG,-0.0747
4,ACAAACCA,-0.0895
5,AACGCGCA,0.21
6,ACTGCTGA,-0.0762
7,AGAATAAG,0.0855
8,CCTGTAGA,-0.114
9,GCCATCTA,-0.0869
10,AGATCAAA,0.0161
11,ATACCCTG,-0.139
12,CTGAGTAA,0.046
13,ATAATAAC,0.107
14,ACTCCACG,0.0133
15,CTAAGCCA,-0.138
16,AAAAAATT,0.143
17,AGTCCCAG,-0.195
18,GGGCCGCA,-0.304
19,CCGTTAAC,-0.0852
20,CTCCTTGA,-0.159
21,AGTTGGAC,0.0514
